# According to the supplement of paper PMC8728848:
# This is one part of the list.
# B1: PX14343H-pdi-506-26-506 (Parabacteroides distasonis) (protein)
# chain: QPTGTMTTDSKLTSKESALALTNSAYLKNTVFNKMTPGWGCNTILLLEYMTGKATSENSQSNYKDFQDLLVSDRSLYIEDWWQDCYAGIANCNLALQKLGEFENLDASLVNGYMAEVKFMRALYYFYLVRIFGDVPKITTVQSELGELQVSRAPVKEIYDEIIIPDLLEAEQSDLAFSDHTGRVSMGAVKALLADVYLTYAGYPLQGGKSYYAESAKRSLEVIKSNEYTLFTDYESLRLPSQNNKGEFIYQVQFSLNKRHNESVRIFLPSRSGISAYDLEYGSLIPTKEFVESFEKGDKRTEEKQYFFTNYKGHPSKFSPGAAELEFMDLNGYYIYKFFDQVAVDNTAKSDLNWSVYRYTDVLLMYAEAQVNADGTPNQQSIDIVNQIRGRAGLAPFKQTNASAFLEEVWDQRYFDLCYENKMWFDMLRTRKIRDDKSGEYVDFIGYKTNWGKVYTETQLLFPIPLSERQANPNLTQNQGY
# What was measured:
# Assay in all cases: glycan array binding signal (z-score within array); higher = stronger binding
# Details in all cases: glycan notation: IUPAC condensed, linker removed
# [1] = molecular target: Gal(b1-4)GlcNAc(b1-3)Gal(b1-4)GlcNAc(b1-3)Gal(b1-4)GlcNAc(b1-3)Gal(b1-4)GlcNAc(b1-2)Man(a1-3)[Gal(b1-4)GlcNAc(b1-3)Gal(b1-4)GlcNAc(b1-3)Gal(b1-4)GlcNAc(b1-3)Gal(b1-4)GlcNAc(b1-2)Man(a1-6)]Man(b1-4)GlcNAc(b1-4)[Fuc(a1-6)]GlcNAc
# Outline: (§1)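 Columns mapping to the same glycan were averaged after glycan names were converted to IUPAC-condensed notation. The data come from 3228 arrays in the Consortium for Functional Glycomics database, limited to those with an available protein sequence. Binding is reported as a within-array Z-score averaged across arrays of one protein sequence and across linkers.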
# [2] = molecular target: Gal(b1-4)GlcNAc(b1-3)Gal(b1-4)GlcNAc(b1-3)Gal(b1-4)GlcNAc(b1-3)Gal(b1-4)GlcNAc(b1-2)[Gal(b1-4)GlcNAc(b1-3)Gal(b1-4)GlcNAc(b1-3)Gal(b1-4)GlcNAc(b1-3)Gal(b1-4)GlcNAc(b1-6)]Man(a1-6)[Gal(b1-4)GlcNAc(b1-3)Gal(b1-4)GlcNAc(b1-3)Gal(b1-4)GlcNAc(b1-3)Gal(b1-4)GlcNAc(b1-2)Man(a1-3)]Man(b1-4)GlcNAc(b1-4)[Fuc(a1-6)]GlcNAc
# Outline: as §1
# [3] = molecular target: Gal(b1-4)GlcNAc(b1-3)Gal(b1-4)GlcNAc(b1-3)Gal(b1-4)GlcNAc(b1-3)Gal(b1-4)GlcNAc(b1-3)Gal(b1-4)GlcNAc(b1-2)Man(a1-3)[Gal(b1-4)GlcNAc(b1-3)Gal(b1-4)GlcNAc(b1-3)Gal(b1-4)GlcNAc(b1-3)Gal(b1-4)GlcNAc(b1-3)Gal(b1-4)GlcNAc(b1-2)Man(a1-6)]Man(b1-4)GlcNAc(b1-4)GlcNAc
# Outline: as §1
# [4] = molecular target: Gal(b1-4)GlcNAc(b1-3)Gal(b1-4)GlcNAc(b1-3)Gal(b1-4)GlcNAc(b1-3)Gal(b1-4)GlcNAc(b1-3)Gal(b1-4)GlcNAc(b1-2)Man(a1-3)[Gal(b1-4)GlcNAc(b1-3)Gal(b1-4)GlcNAc(b1-3)Gal(b1-4)GlcNAc(b1-3)Gal(b1-4)GlcNAc(b1-3)Gal(b1-4)GlcNAc(b1-2)Man(a1-6)]Man(b1-4)GlcNAc(b1-4)[Fuc(a1-6)]GlcNAc
# Outline: as §1
# [5] = molecular target: Gal(b1-4)GlcNAc(b1-3)Gal(b1-4)GlcNAc(b1-3)Gal(b1-4)GlcNAc(b1-3)Gal(b1-4)GlcNAc(b1-3)Gal(b1-4)GlcNAc(b1-2)[Gal(b1-4)GlcNAc(b1-3)Gal(b1-4)GlcNAc(b1-3)Gal(b1-4)GlcNAc(b1-3)Gal(b1-4)GlcNAc(b1-3)Gal(b1-4)GlcNAc(b1-6)]Man(a1-6)[Gal(b1-4)GlcNAc(b1-3)Gal(b1-4)GlcNAc(b1-3)Gal(b1-4)GlcNAc(b1-3)Gal(b1-4)GlcNAc(b1-3)Gal(b1-4)GlcNAc(b1-2)Man(a1-3)]Man(b1-4)GlcNAc(b1-4)[Fuc(a1-6)]GlcNAc
# Outline: as §1
# [6] = molecular target: Gal(b1-4)GlcNAc(b1-3)Gal(b1-4)GlcNAc(b1-3)Gal(b1-4)GlcNAc(b1-3)Gal(b1-4)GlcNAc(b1-3)Gal(b1-4)GlcNAc(b1-3)Gal(b1-4)GlcNAc(b1-2)Man(a1-3)[Gal(b1-4)GlcNAc(b1-3)Gal(b1-4)GlcNAc(b1-3)Gal(b1-4)GlcNAc(b1-3)Gal(b1-4)GlcNAc(b1-3)Gal(b1-4)GlcNAc(b1-3)Gal(b1-4)GlcNAc(b1-2)Man(a1-6)]Man(b1-4)GlcNAc(b1-4)GlcNAc
# Outline: as §1
# [7] = molecular target: Gal(b1-4)GlcNAc(b1-3)Gal(b1-4)GlcNAc(b1-3)GalNAc
# Outline: as §1
# [8] = molecular target: Gal(b1-4)GlcNAc(b1-3)Gal(b1-4)GlcNAc(b1-3)[Gal(b1-4)GlcNAc(b1-3)Gal(b1-4)GlcNAc(b1-6)]GalNAc
# Outline: as §1
# [9] = molecular target: Gal(b1-4)GlcNAc(b1-3)Gal(b1-4)GlcNAc(b1-6)[Gal(b1-3)]GalNAc
# Outline: as §1
# [10] = molecular target: Gal(b1-4)GlcNAc(b1-3)Gal(b1-4)[Fuc(a1-3)]GlcNAc(b1-3)Gal(b1-4)[Fuc(a1-3)]GlcNAc
# Outline: as §1
# [11] = molecular target: Gal(b1-4)GlcNAc(b1-3)GalNAc
# Outline: as §1
# [12] = molecular target: Gal(b1-4)GlcNAc(b1-3)[Fuc(a1-3)GlcNAc(b1-6)]Gal(b1-4)Glc
# Outline: as §1
# [13] = molecular target: Gal(b1-4)GlcNAc(b1-3)[Gal(b1-4)GlcNAc(b1-6)]Gal(b1-4)GlcNAc
# Outline: as §1
# [14] = molecular target: Gal(b1-4)GlcNAc(b1-3)[GlcNAc(b1-6)]Gal(b1-4)GlcNAc
# Outline: as §1
# [15] = molecular target: Gal(b1-4)GlcNAc(b1-6)Gal(b1-4)GlcNAc
# Outline: as §1
# [16] = molecular target: Gal(b1-4)GlcNAc(b1-6)GalNAc
# Outline: as §1
# [17] = molecular target: Gal(b1-4)GlcNAc(b1-6)[Gal(b1-3)]GalNAc
# Outline: as §1
# [18] = molecular target: Gal(b1-4)GlcNAc(b1-6)[Gal(b1-4)GlcNAc(b1-3)]GalNAc
# Outline: as §1
# Gal(b1-4)GlcNAc6P = molecular target: Gal(b1-4)GlcNAc6P
# Outline: as §1
# Gal(b1-6)Gal = molecular target: Gal(b1-6)Gal
# Outline: as §1
# Gal3S(b1-3)GalNAc = molecular target: Gal3S(b1-3)GalNAc
# Outline: as §1
# Gal3S(b1-3)GlcNAc = molecular target: Gal3S(b1-3)GlcNAc
# Outline: as §1
# [19] = molecular target: Gal3S(b1-3)[Fuc(a1-4)]GlcNAc
# Outline: as §1
# Gal3S(b1-4)Glc = molecular target: Gal3S(b1-4)Glc
# Outline: as §1
# Gal3S(b1-4)Glc6S = molecular target: Gal3S(b1-4)Glc6S
# Outline: as §1
# Gal3S(b1-4)GlcNAc = molecular target: Gal3S(b1-4)GlcNAc
# Outline: as §1
# [20] = molecular target: Gal3S(b1-4)[Fuc(a1-3)]Glc6S
# Outline: as §1
# [21] = molecular target: Gal3S(b1-4)[Fuc(a1-3)]GlcNAc
# Outline: as §1
# [22] = molecular target: Gal3S(b1-4)[Fuc(a1-3)]GlcNAc6S
# Outline: as §1
# Gal3S4S(b1-4)GlcNAc = molecular target: Gal3S4S(b1-4)GlcNAc
# Outline: as §1
# Gal3S6S(b1-4)GlcNAc = molecular target: Gal3S6S(b1-4)GlcNAc
# Outline: as §1
# Gal3S6S(b1-4)GlcNAc6S = molecular target: Gal3S6S(b1-4)GlcNAc6S
# Outline: as §1
# Gal4S(b1-4)GlcNAc = molecular target: Gal4S(b1-4)GlcNAc
# Outline: as §1
# Gal4S6S(b1-4)GlcNAc = molecular target: Gal4S6S(b1-4)GlcNAc
# Outline: as §1
# Gal6P(b1-4)GlcNAc = molecular target: Gal6P(b1-4)GlcNAc
# Outline: as §1
# Gal6S(b1-3)GlcNAc = molecular target: Gal6S(b1-3)GlcNAc
# Outline: as §1
# Gal6S(b1-3)GlcNAc6S = molecular target: Gal6S(b1-3)GlcNAc6S
# Outline: as §1
# Gal6S(b1-4)Glc = molecular target: Gal6S(b1-4)Glc
# Outline: as §1
binder,measurement,setting,value
B1,glycan array binding signal (z-score),[1],0.292
same,glycan array binding signal (z-score),[2],0.883
same,glycan array binding signal (z-score),[3],0.552
same,glycan array binding signal (z-score),[4],0.244
same,glycan array binding signal (z-score),[5],0.888
same,glycan array binding signal (z-score),[6],4.45
same,glycan array binding signal (z-score),[7],0.145
same,glycan array binding signal (z-score),[8],0.311
same,glycan array binding signal (z-score),[9],-0.1
same,glycan array binding signal (z-score),[10],-0.204
same,glycan array binding signal (z-score),[11],-0.441
same,glycan array binding signal (z-score),[12],0.029
same,glycan array binding signal (z-score),[13],-0.216
same,glycan array binding signal (z-score),[14],-0.347
same,glycan array binding signal (z-score),[15],-0.42
same,glycan array binding signal (z-score),[16],-0.235
same,glycan array binding signal (z-score),[17],-0.08
same,glycan array binding signal (z-score),[18],2.17
same,glycan array binding signal (z-score),Gal(b1-4)GlcNAc6P,-0.427
same,glycan array binding signal (z-score),Gal(b1-6)Gal,-0.379
same,glycan array binding signal (z-score),Gal3S(b1-3)GalNAc,-0.491
same,glycan array binding signal (z-score),Gal3S(b1-3)GlcNAc,-0.402
same,glycan array binding signal (z-score),[19],-0.34
same,glycan array binding signal (z-score),Gal3S(b1-4)Glc,-0.199
same,glycan array binding signal (z-score),Gal3S(b1-4)Glc6S,-0.412
same,glycan array binding signal (z-score),Gal3S(b1-4)GlcNAc,-0.235
same,glycan array binding signal (z-score),[20],0.527
same,glycan array binding signal (z-score),[21],-0.317
same,glycan array binding signal (z-score),[22],0.077
same,glycan array binding signal (z-score),Gal3S4S(b1-4)GlcNAc,-0.293
same,glycan array binding signal (z-score),Gal3S6S(b1-4)GlcNAc,-0.11
same,glycan array binding signal (z-score),Gal3S6S(b1-4)GlcNAc6S,-0.303
same,glycan array binding signal (z-score),Gal4S(b1-4)GlcNAc,-0.394
same,glycan array binding signal (z-score),Gal4S6S(b1-4)GlcNAc,-0.505
same,glycan array binding signal (z-score),Gal6P(b1-4)GlcNAc,-0.375
same,glycan array binding signal (z-score),Gal6S(b1-3)GlcNAc,-0.521
same,glycan array binding signal (z-score),Gal6S(b1-3)GlcNAc6S,-0.293
same,glycan array binding signal (z-score),Gal6S(b1-4)Glc,0.262
